# Out of some 230,000 compounds screened, about 3,600 (1.6%) were called active. Inconclusive results, whose numbers are uncertain, are shown with a selection of clear calls. Calls come from the whole dose curve; as a rule, active = well fitted inhibition curve with a large enough effect (not every such curve was filed as active); inconclusive = small, poorly fitted or top-dose-only effect, or another doubt; inactive = no such curve, though single readings can be large or run the other way. Potencies of inconclusive entries are doubtful fits and often do not repeat.
# Biological target: Lysine-specific demethylase 4E (Homo sapiens) (UniProt B2RXH2)
# Chain of UniProt B2RXH2 (B2RXH2 whole entry, looked up, the tested form may be a part): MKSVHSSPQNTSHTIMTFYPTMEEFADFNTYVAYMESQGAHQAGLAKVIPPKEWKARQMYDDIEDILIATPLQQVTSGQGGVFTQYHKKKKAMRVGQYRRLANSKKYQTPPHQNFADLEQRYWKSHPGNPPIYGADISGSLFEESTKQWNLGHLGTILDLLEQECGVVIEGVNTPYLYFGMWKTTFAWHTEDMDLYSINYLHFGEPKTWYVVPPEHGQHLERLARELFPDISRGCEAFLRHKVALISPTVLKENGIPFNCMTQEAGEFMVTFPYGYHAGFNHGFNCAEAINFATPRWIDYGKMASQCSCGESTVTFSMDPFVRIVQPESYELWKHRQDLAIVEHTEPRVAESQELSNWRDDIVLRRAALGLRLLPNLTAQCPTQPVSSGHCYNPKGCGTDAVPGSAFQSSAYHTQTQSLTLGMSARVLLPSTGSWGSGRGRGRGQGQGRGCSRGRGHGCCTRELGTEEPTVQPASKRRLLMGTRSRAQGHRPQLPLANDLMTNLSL
# Assay: qHTS Assay for Inhibitors of Human Jumonji Domain Containing 2E (JMJD2E)
# Conditions: JMJD2E catalytic domain, FDH-coupled NADH fluorescence (FDH is formaldehyde dehydrogenase); series mostly up to 57.1 µM
# Note: nearly all actives have a fitted effect of over 50% in size.
# Potency is the fitted concentration of half-maximal effect; tags give direction and shape of the fitted curve.
row,Compound,Potency
1,CCS(=O)(=O)N1Cc2ccccc2CC1C(=O)N1CCN(c2ccccc2)CC1 (configuration not stated),inactive
2,Cc1cc(C)cc(C(=O)NC2C(=O)N3C(C(=O)O)=C(CSc4nnc(C)s4)CSC23)c1 (configuration not stated),inactive
3,O=C(c1ccc(-c2nnc(Nc3ccccc3)c3ccccc23)cc1)N1C[C@H]2C[C@H](C1)c1cccc(=O)n1C2,inactive
4,CCOC(=O)c1sc(=NC(=O)c2cccs2)n(C)c1C,inactive
5,C=CCn1c(N)c(C(=O)NCC2CCCO2)c2nc3ccccc3nc21 (configuration not stated),inactive
6,CCOC(=O)Cn1c(C(C)=O)nc2ccccc21,"inconclusive: 35.5 µM [inhibitor, partial curve]"
7,O=C(CC(c1ccccc1)c1cc(Br)ccc1O)NCCN1CCOCC1 (configuration not stated),inactive
8,O=C(NC1CCN(C(=O)C2CCCCC2)CC1)c1ccccc1,inactive
9,NC(=O)CSC1=Nc2ccccc2C2=NC(CCC(=O)NCc3ccc(F)cc3)C(=O)N12 (configuration not stated),"inconclusive: 35.5 µM [inhibitor, partial curve]"
10,CCC(CC)NC(=O)CN(c1ccccc1OC)S(=O)(=O)c1cccs1,inactive
11,CCn1c2ccccc2c2cc(NC(=O)COC(=O)c3cc(S(N)(=O)=O)c(Cl)cc3Cl)ccc21,inactive
12,CCOC(=O)/C(C#N)=C\C1=C(N2CCOCC2)CC(C)(C)OC1,"inconclusive: 35.5 µM [inhibitor, single point]"
13,NNC(=O)Cn1c(-c2ccccc2)cc(=O)n2ncnc12,inactive
14,CC(=O)N(Cc1ccc(F)cc1)Cc1nc2ccccc2c(=O)[nH]1,inactive
15,Cc1cc(C)c2cc(CN(CCO)C(c3nnnn3Cc3ccc(F)cc3)C(C)C)c(=O)[nH]c2c1 (configuration not stated),"inconclusive: 35.5 µM [inhibitor, single point]"
16,O=S(=O)(Cc1ccccc1)c1nnnn1-c1ccccc1,inactive
17,COc1ccc(C2C(C#N)=C(N)N(c3cccnc3)C3=C2C(=O)CCC3)cc1Cn1cc([N+](=O)[O-])cn1 (configuration not stated),"inconclusive: 22.4 µM [inhibitor, partial curve]"
18,CCc1c(C)sc(NC(=O)c2ccco2)c1C(=O)N1CCCCC1,inactive
19,O=C(Cn1cnc([N+](=O)[O-])n1)N/N=C/c1cc(Cl)ccc1O,active: 22.4 µM
20,CCn1c2ccccc2c2c3ncc4cccn4c3ccc21,"inconclusive: 20 µM [inhibitor, partial curve]"
21,CCOC(=O)c1[nH]c2ccc(OC)cc2c1NC(=O)C(C)N1CCSCC1 (configuration not stated),"inconclusive: 25.1 µM [inhibitor, partial curve]"
22,Cc1cc(NCCCn2ccnc2)n2nc(C)c(-c3ccc(Cl)cc3)c2n1,inactive
23,Cc1cc(C(=O)N2CCC(C)CC2)on1,inactive
24,Cc1ccc(-n2c(=O)[nH]c3c(C(N)=O)nc(CC(C)C)nc32)cc1,"inconclusive: 22.4 µM [inhibitor, single point]"
25,C=CCn1c(-c2cc3c(s2)CCC(CC)C3)n[nH]c1=S (configuration not stated),"inconclusive: 28.2 µM [inhibitor, partial curve]"
26,O=C(CN1C(=O)C2CC=CCC2C1=O)Nc1ccc(S(=O)(=O)N2CCOCC2)cc1 (configuration not stated),inactive

row,Compound,Potency
1,S=C(c1c[nH]c2ccccc12)N1CCOCC1,inactive
2,N=c1n(CC(=O)c2ccc([N+](=O)[O-])cc2)c2ccccc2n1Cc1ccccc1,"inconclusive: 31.6 µM [inhibitor, single point]"
3,CC(=O)Cc1nsc(NC(=O)c2cc(-c3ccccc3Cl)oc2C)n1,"inconclusive: 39.8 µM [inhibitor, single point]"
4,Cc1ccc(-c2nc(C#N)c(NCCc3ccccn3)o2)cc1,"inconclusive: 2 µM [inhibitor, partial curve]"
5,COc1ccc(-c2csc(/C(C#N)=C(\O)CSc3nccn3C)n2)cc1OC,"inconclusive: 39.8 µM [inhibitor, single point]"
6,O=C1c2ccccc2NC(c2ccccn2)N1c1ccccc1F (configuration not stated),"inconclusive: 31.6 µM [inhibitor, partial curve]"
7,O=C(NC(Cc1c[nH]c2ccccc12)C(=O)Nc1ccc(F)cc1)c1cccs1 (configuration not stated),"inconclusive: 28.2 µM [inhibitor, partial curve]"
8,O=C(c1cc2ccccc2cc1OCC(O)CN1CCCCC1)N1CCCCC1 (configuration not stated),inactive
9,O=C(Nc1nnc(-c2cccs2)o1)c1ccc(S(=O)(=O)N2CCOCC2)cc1,"inconclusive: 39.8 µM [inhibitor, single point]"
10,Cc1ccc2nc(Cl)c3nnnn3c2c1,"inconclusive: 28.2 µM [inhibitor, partial curve]"
11,COc1ccc(C(=O)N/C(=C\c2cccc3ccccc23)C(=O)N2CCN(C)CC2)cc1OC,"inconclusive: 14.1 µM [inhibitor, partial curve, poor fit]"
12,Oc1ccccc1/C=N/Nc1cc(N2CCCC2)nc(N2CCCC2)n1,"inconclusive: 14.1 µM [inhibitor, partial curve]"
13,CCOC(=O)c1c(C(=O)OCC)c(C)n(N2C(=O)CSC2=S)c1C,inactive
14,CCCN(Cc1cc2ccc(C)cc2[nH]c1=O)C(=O)c1ccccn1,"inconclusive: 14.1 µM [inhibitor, partial curve]"
15,Cc1ccc(N(C)C(=O)N2CCN(S(=O)(=O)c3ccc(C)cc3)CC2)cc1,inactive
16,C=CCNC(=S)Nc1ccc2nc(C)c(C)nc2c1,"inconclusive: 35.5 µM [inhibitor, single point]"
17,O=C(O)c1cccc(Nc2ncnc3c2cnn3-c2ccccc2)c1,inactive
18,O=C(CSc1nnc(-c2ccc(Br)o2)n1Cc1ccccc1)c1ccccc1F,inactive
19,CCCc1nc2c(=O)n(C)c(=O)[nH]c2n1C,"inconclusive: 25.1 µM [inhibitor, partial curve]"
20,COc1ccc(S(=O)(=O)Nc2ccccc2C(=O)NCc2ccco2)cc1Br,"inconclusive: 28.2 µM [inhibitor, partial curve]"
21,O=C(CSc1nc2c(sc3ccccc32)c(=O)n1Cc1ccco1)NCC1CCCO1 (configuration not stated),"inconclusive: 25.1 µM [inhibitor, single point]"
22,c1ccc(CCc2nn3c(Cn4cnc5ccccc54)nnc3s2)cc1,inactive
23,CCS(=O)(=O)N1Cc2ccccc2CC1C(=O)NC(C)C12CC3CC(CC(C3)C1)C2 (configuration not stated),inactive
24,CCn1c(-c2ccco2)nc2ccccc21,"inconclusive: 31.6 µM [inhibitor, partial curve]"
25,O=C(Nc1ccc(N2CCOCC2)cc1)C1CCCCC1,inactive
26,Cc1cccc(Nc2nc3c(S(=O)(=O)c4ccccc4)nnn3c3ccccc23)c1,"inconclusive: 3.55 µM [inhibitor, full curve]"

row,Compound,Potency
1,Clc1ncccc1-c1nc2ccccc2n1Cc1ccccc1,"inconclusive: 28.2 µM [inhibitor, single point]"
2,CCOC(=O)c1[nH]c2ccc(F)cc2c1NC(=O)Nc1ccccc1OC,"inconclusive: 35.5 µM [inhibitor, single point]"
3,CCOCCCNCc1ccc(OCc2ccccc2C)c(OC)c1,inactive
4,CC1(C)CC(=O)C(C(c2cccnc2)C2C(=O)CC(C)(C)CC2=O)C(=O)C1,inactive
5,CCc1cc(C(c2cccc(OC)c2)N2CCOCC2)c(NC(=O)c2ccccc2)s1 (configuration not stated),"inconclusive: 28.2 µM [inhibitor, single point]"
6,Cc1ccc(C(CC(=O)c2ccco2)SCCO)cc1 (configuration not stated),"inconclusive: 31.6 µM [inhibitor, single point]"
7,Cc1ccc(NC(=O)c2cc(N3C(=O)C=CC3=O)ccc2Cl)cc1C,inactive
8,Cc1ccc(S(=O)(=O)Cc2cn3cccnc3n2)cc1,"inconclusive: 31.6 µM [inhibitor, partial curve]"
9,Cc1ccc(NC(=O)Nc2nnc(-c3ccccc3)o2)cc1,"inconclusive: 4.47 µM [inhibitor, full curve]"
10,Cc1cccc(/C=N/NC(=O)Cn2nccc2C)n1,inactive
11,CCOC(=O)c1c(C)oc(/N=C/c2ccccc2O)c1C#N,inactive
12,CC(NCc1ccc(S(N)(=O)=O)cc1)C(=O)N1CCc2ccccc21 (configuration not stated),inactive
13,CCC(=O)NC(Nc1cc(C)ccn1)(C(F)(F)F)C(F)(F)F,"inconclusive: 25.1 µM [inhibitor, single point]"
14,Cc1ccc2nsnc2c1N(S(C)(=O)=O)S(C)(=O)=O,"inconclusive: 28.2 µM [inhibitor, single point]"
15,O=C(Nc1nc(-c2cccnc2)cs1)c1ccc([N+](=O)[O-])cc1,inactive
16,Cc1ccc(-c2csc3ncn(-n4c(C)ccc4C)c(=O)c23)o1,"inconclusive: 31.6 µM [inhibitor, single point]"
17,O=C(Nc1cc(C(F)(F)F)ccc1N1CCOCC1)c1ccccc1F,"inconclusive: 39.8 µM [inhibitor, single point]"
18,COc1ccc2nc(C)cc(SCC(=O)N/N=C/c3cccc4ccccc34)c2c1,inactive
19,OC(CN1CCN(c2ccccc2)CC1)c1ccc2c(c1)CCN2 (configuration not stated),inactive
20,CC(=O)N1CCN=C1SCc1c(F)cccc1Cl,"inconclusive: 3.16 µM [inhibitor, partial curve]"
21,Cc1nc2cc(-c3ccccc3)nn2c(C)c1CCC(=O)NCc1ccco1,"inconclusive: 5.01 µM [inhibitor, single point]"
22,O=c1[nH]c2cccnc2c2ccsc12,"inconclusive: 28.2 µM [inhibitor, partial curve]"
23,O=S(=O)(c1ccccc1)N1CCN(c2nnc(-c3ccccc3)c3ccccc23)CC1,inactive
24,CSC1=NS(=O)(=O)c2c(C)nn(C)c2S1,active: 3.55 µM
25,COc1ccc(/C(=C/c2ccc(OC(F)F)c(OC)c2)C(=O)O)cc1OC,"inconclusive: 5.62 µM [inhibitor, partial curve, poor fit]"
